PubChem BioAssay AID686979 (National Center for Advancing Translational Sciences (NCATS), 2013)
Out of some 420,000 compounds screened, about 50,000 (12%) were called active. This list was built around the results that the source calls inconclusive (neither active nor inactive); the mix of calls is not that of the screen. The call rests on the fitted dose curve; in most records, active means well fitted inhibition curve with a large enough effect; inconclusive means small, poorly fitted or top-dose-only effect; inactive means flat fitted curve, though single readings scatter. No potency is given beside an inconclusive call; the fits are too rough.

assay: qHTS for Inhibitors of human tyrosyl-DNA phosphodiesterase 1 (TDP1): qHTS in cells in presence of CPT; details: chicken DT40 Tdp1-/-;hTDP1 cells + 20 nM CPT, ATP luminescence, 48 h; activity change, negative = growth inhibition: at 46.2 µM (top of the series) unless noted; further: nearly all actives have a fitted effect of over 55% in size
Outline: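 Cell growth measured by CellTiter-Glo luminescence after a minimum 48 h, 37 C compound exposure with 20 nM CPT in Tdp1-knockout DT40 cells stably expressing hTDP1, seeded 400/well; qHTS titration format.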
On the % scale 0 is the no-effect control and ±100 the full control effect; potency means the concentration at half of the fitted maximal effect; tags describe the fitted curve by direction and shape.

SMILES	Potency	activity change, negative = growth inhibition
COc1ccc(NS(=O)(=O)c2cc(NC(=O)C3=NN(c4ccccc4)C(=O)CC3)ccc2OC)cc1	inconclusive [inhibitor, single point]	–
Cc1ccc(S(=O)(=O)CCSc2n[nH]c(=O)n2-c2ccc3c(c2)OCCO3)cc1	inconclusive [inhibitor, single point]	–
CC(NC(=O)COC(=O)c1cc(NS(=O)(=O)c2ccc(Cl)c([N+](=O)[O-])c2)ccc1O)C1CC2CCC1C2 (centres undefined)	inconclusive [inhibitor, single point]	–
COc1ccc(OCC(=O)N2c3ccc(C)cc3C3CN(C)CCC32)cc1 (centres undefined)	–	inactive: 18.3%
COc1ccc(CN2C(=O)C(CC(=O)NCc3cccs3)CC(C(=O)N(C(C)C)C(C)C)=C2C)cc1 (centres undefined)	inconclusive [inhibitor, single point]	–
COc1ccc(S(=O)(=O)N2CCOC2CNC(=O)C(=O)NCCCN2CCOCC2)cc1OC (centres undefined)	–	inactive: -1.18%
Cn1c(=O)c2c(ncn2CC(=O)Nc2cc(Cl)cc(Cl)c2)n(C)c1=O	inconclusive [inhibitor, partial curve]	–
CCC(C)C(=O)Nc1nc(C)c(-c2csc(Nc3cc(OC)ccc3OC)n2)s1 (centres undefined)	active: 16.4 µM	–
CCOC(=O)c1cccc(NC(=O)CC2Oc3ccccc3NC2=O)c1 (centres undefined)	inconclusive [inhibitor, single point]	–
Cn1cc(S(=O)(=O)N2CCCCCC2)cc1C(=O)N1CCN(c2ccc(Cl)cc2)CC1	inconclusive [inhibitor, single point]	–
O=C(NCC1CCCO1)c1ccccc1NS(=O)(=O)c1ccc(F)cc1 (centres undefined)	–	inactive: -12.9%
Clc1ccc(CCNC(c2cccc(Cl)c2)c2nnc(-c3ccccc3)o2)cc1 (centres undefined)	inconclusive [inhibitor, single point]	–
COc1cc(/C=C2/NC(=O)N(Cc3ccccc3F)C2=O)ccc1O	inconclusive [inhibitor, single point]	–
Cc1cc(S(=O)(=O)c2cc3ccc(O)c(C)c3oc2=O)ccc1F	inconclusive [inhibitor, single point]	–
CC(C)CC(=O)N1CCN(Cc2ccccc2Br)CC1	–	inactive: 0.503%
CC1=C(C(=O)Nc2ccccc2)C(c2ccccc2Cl)n2ncc(C(=O)Nc3cccc(C)c3)c2N1 (centres undefined)	inconclusive [inhibitor, single point]	–
COc1ccc(Cl)cc1NC(=O)CSc1nc2ccccc2nc1N1CCCCC1	inconclusive [inhibitor, single point]	–
C[N+]1(Cc2ccccc2)CCC(C(=O)OCC2CCCC2)CC1 (centres undefined)	inconclusive [inhibitor, single point]	–
CCCc1cc(=O)n2[nH]c(C)c(-c3ccc(Cl)cc3)c2n1	active: 20.6 µM	–
CC(O)(c1ccc(F)c(F)c1)c1nc(-c2ccoc2)cs1 (centres undefined)	inconclusive [inhibitor, single point]	–
O=C(Cn1ncc2c([nH]c3ccccc32)c1=O)Nc1ccc(F)cc1F	–	inactive: -8.97%
COc1ccc(/C=C/C(=O)OCC(=O)NCCC2=CCCCC2)cc1OC	inconclusive [inhibitor, single point]	–

SMILES	Potency	activity change, negative = growth inhibition
CCOC(=O)COc1ccc([N+](=O)[O-])cc1	–	inactive: 3.15%
CC(NC(=O)c1ccc2ccccc2n1)c1ccc(Br)cc1 (centres undefined)	inconclusive [inhibitor, partial curve]	–
Cc1ccc(CC(=O)Nc2ccccc2-c2ccccc2)cc1C	inconclusive [inhibitor, single point]	–
CCOC(=O)c1c(C)oc2ncnc(N3CCN(c4cccc(Cl)c4)CC3)c12	inconclusive [inhibitor, single point]	–
N#C/C=C(/N)N1CCN(c2ccc(Cl)c(Cl)c2)CC1	inconclusive [inhibitor, single point]	–
COc1cccc(-c2ccc3ncnc(NCc4ccccc4OC)c3c2)c1	inconclusive [inhibitor, partial curve, poor fit]	–
COc1cc(C(=O)N2CCCCCCC2)ccc1OC1CCN(C(C)=O)CC1	–	inactive: -24.9%
O=C(NC(Cc1c[nH]c2ccccc12)c1nnc2n1CCCCC2)c1ccccc1Cl (centres undefined)	–	inactive: -25.8%
CCOc1ccc(CNC(=O)Cn2c(=O)c3cccn3c3ccc(F)cc32)cc1OC	–	inactive: -18%
O=C(Nc1cc(Cl)ccc1N1CCOCC1)c1ccc2c(c1)OCCO2	inconclusive [inhibitor, single point]	–
CC(C)(C)OC(=O)NCCCC[C@@H](C(=O)NCCCCCCCCCCC(=O)N1CCN(C(=O)OC(C)(C)C)CC1)n1cc(CCCC(=O)O)nn1	inconclusive [inhibitor, partial curve]	–
CCC(C)NC(=O)CCSCCC(=O)NC(C)CC (centres undefined)	–	inactive: -9.36%
CCn1cc(/C=C(\NC(=O)c2ccccc2Cl)C(=O)NCCN2CCOCC2)c2ccccc21	inconclusive [inhibitor, single point]	–
CCC(=O)Nc1ccc(C(=O)Nc2cccc(C)n2)cc1	–	inactive: 5.87%
CCOC(=O)Cn1nc(-c2ccc(F)cc2)cc(Cc2ccccc2)c1=O	–	inactive: -23.3%
COc1ccc(CCNC(=O)c2cccc(S(=O)(=O)N3CCc4ccccc4C3)c2)cc1	inconclusive [inhibitor, partial curve]	–
CN(Cc1ccccc1)C(=O)c1cc2c(s1)-c1ccc(Cl)cc1SC2	inconclusive [inhibitor, single point]	–
O=C(Nc1nnc([C@H]2C[C@H](O)[C@@H](CO)O2)s1)c1cccc(Cl)c1	–	inactive: -16.4%
Cc1cccc(NC(=S)NCCc2c[nH]c3ccccc23)c1	inconclusive [inhibitor, single point]	–
COc1cc(NCc2ccc3nc(N)nc(N)c3c2C)cc(OC)c1OC	active: 0.376 µM	–
O=C(/C=C/NNC(=O)c1ccc(Cl)cc1)c1ccccc1	inconclusive [inhibitor, single point]	–
N#CC1=C(N)OC2=C(CN(Cc3ccccc3)C/C2=C\c2cccnc2)C1c1cccnc1 (centres undefined)	inconclusive [inhibitor, single point]	–
